# The full ranking holds about 33,000 sequences; the median of “E-score (-0.5 to 0.5)” is about -0.012, and the highest 2% start at about 0.29. Some of the results follow.
# Target: T1, Ybr033w (UniProt P38073)
# T1 sequence: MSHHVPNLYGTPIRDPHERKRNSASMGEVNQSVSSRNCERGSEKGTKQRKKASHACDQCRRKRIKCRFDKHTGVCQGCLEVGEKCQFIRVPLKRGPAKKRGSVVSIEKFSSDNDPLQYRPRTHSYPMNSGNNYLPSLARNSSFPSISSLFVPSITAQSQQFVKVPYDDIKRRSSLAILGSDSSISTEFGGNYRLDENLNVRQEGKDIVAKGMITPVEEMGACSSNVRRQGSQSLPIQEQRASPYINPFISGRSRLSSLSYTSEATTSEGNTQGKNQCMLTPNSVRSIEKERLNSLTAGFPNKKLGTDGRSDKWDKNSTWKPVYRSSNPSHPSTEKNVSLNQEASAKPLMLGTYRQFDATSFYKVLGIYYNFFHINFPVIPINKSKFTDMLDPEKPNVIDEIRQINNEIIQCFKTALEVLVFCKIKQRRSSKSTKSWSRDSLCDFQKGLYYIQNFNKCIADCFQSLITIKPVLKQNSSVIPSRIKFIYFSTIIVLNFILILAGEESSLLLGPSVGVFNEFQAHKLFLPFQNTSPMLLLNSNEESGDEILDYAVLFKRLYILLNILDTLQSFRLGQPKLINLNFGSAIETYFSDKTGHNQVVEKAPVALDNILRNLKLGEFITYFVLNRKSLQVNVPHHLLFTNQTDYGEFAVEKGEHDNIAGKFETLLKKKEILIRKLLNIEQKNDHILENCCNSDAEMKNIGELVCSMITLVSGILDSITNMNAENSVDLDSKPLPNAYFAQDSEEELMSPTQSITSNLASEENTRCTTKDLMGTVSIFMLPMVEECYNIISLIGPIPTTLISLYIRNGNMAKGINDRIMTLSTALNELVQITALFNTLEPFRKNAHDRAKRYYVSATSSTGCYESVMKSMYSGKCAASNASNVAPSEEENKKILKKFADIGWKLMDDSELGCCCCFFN
# Assay: PBM E-score (8-mer binding enrichment) (E-score (-0.5 to 0.5)); higher = stronger / more preferred TF binding; most listed sequences are background and not binding sites
# Details: protein concentration: 200 nM; construct: GST-full length
# How it was run: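 Universal all-10-mer Agilent arrays, double-stranded by primer extension on fresh or once-stripped slides, were probed with about 100-200 nM GST-tagged yeast transcription factors made by PURExpress. Fluorescent anti-GST detected bound protein, and masliner normalised the scans. E-scores from the Universal PBM Analysis Suite were given to each ungapped eight-base word pooled with its reverse complement.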
row,Sequence,PBM E-score
1,ATTTTAAC,0.189
2,AAGACAGC,-0.0461
3,TCCCGGAA,0.161
4,GGAATTAC,0.291
5,CGAGAGAA,0.0602
6,CGAGGCAC,-0.109
7,CCGTAATA,0.154
8,CTCGTTTC,0.0476
9,TACGTTGA,0.0485
10,AATAGGAT,0.295
11,CGCTCTCA,-0.223
12,GTGGGGTA,0.00795
13,AGAACTCC,-0.05
14,GAGGTTGC,-0.239
15,AACATGAA,0.0903
16,TGTTCGAA,0.0189
17,ACTCGTTG,-0.031
18,GAAATCGA,-0.0436
19,CCCTTCGA,-0.158
20,ATTACATG,0.161
21,ATGACGGG,-0.117
22,CATGGAAG,0.204
23,AAAGTAGC,0.142
24,AAGCAATC,0.0251
25,ACTCTGTA,0.105

row,Sequence,PBM E-score
1,AAGTTTTA,0.179
2,GTTCGAAA,0.0787
3,ATAGGTTC,0.143
4,AACCCCCT,-0.296
5,TACAGTAA,0.174
6,CTTATGAA,0.102
7,CGTTATCA,0.0121
8,AAGCCACA,-0.0702
9,CCCACTCC,-0.238
10,CATCTCCG,-0.00322
11,GCACACCA,-0.145
12,ATTCTTCC,0.471
13,CCGCCATA,0.0114
14,ATGTCTGC,-0.125
15,GCACTATA,0.0785
16,AACGACCC,-0.309
17,GTCCATTA,0.0962
18,CCCGGAGC,-0.222
19,TCGCGTCA,-0.11
20,GGGTGATA,-0.0882
21,CTCCTAAG,-0.109
22,CACAGACA,0.0387
23,CCGATAAA,0.0212
24,ATGCATTG,0.0596
25,AGGGGCCG,-0.29

row,Sequence,PBM E-score
1,CAGATGGA,0.22
2,CGCGATAA,0.223
3,TGACAGAA,0.131
4,ATGAAAAC,0.202
5,AACAGGTC,0.0597
6,ACTACACA,0.214
7,ACTCCGTG,-0.0559
8,ACCTTGTC,-0.217
9,AGAGTTCC,-0.098
10,AGAGTCCG,-0.109
11,GATATACA,0.144
12,ATTACGCA,0.225
13,CTATGCCC,-0.206
14,AAACTGGG,0.0083
15,GACCATCC,-0.14
16,ATTCCATG,0.133
17,AAACCTCT,-0.0634
18,CGAGGTCC,-0.24
19,CACGTCGA,-0.0306
20,AGGTAGGC,-0.147
21,AGCACTAA,0.146
22,CATTGAGG,-0.0918
23,CCTTGGTA,0.137
24,AGTTCTCC,-0.131
25,ATCCATGG,-0.0256

row,Sequence,PBM E-score
1,GCTTGTAA,0.0713
2,CTAAATCC,0.018
3,CGGGATTC,-0.0497
4,CTTTGGTC,0.0811
5,AACGCTAA,-0.0623
6,GAAGGGAC,-0.154
7,ATGTTTCA,0.171
8,CCGGGACC,-0.211
9,AAGACCAT,0.073
10,GAGATCAA,0.118
11,CTCACAAG,-0.103
12,CGTATATA,-0.0295
13,CCCCGAAG,-0.0238
14,CCTATAGA,-0.0909
15,AAGCTGAT,0.202
16,ACAAGTAC,0.0779
17,CACAGCAC,-0.103
18,AGGACAAG,-0.111
19,AATTTTCG,0.102
20,GGCTACAC,-0.12
21,GGATCAAA,0.367
22,AGGGAGAG,-0.255
23,GACAGGTA,-0.133
24,GGATCGCC,-0.123
25,AAAGACGA,0.0553

row,Sequence,PBM E-score
1,GATGGGAA,-0.0943
2,CCTGAAGG,-0.182
3,GCACAAAC,-0.0739
4,CCCCAACA,-0.0451
5,AGGTTAAG,-0.00148
6,CGCCCCGA,-0.206
7,CTAGCGAA,-0.191
8,AGATGAAA,0.0735
9,CGGCCTAA,0.00964
10,GGCGAGCC,-0.212
11,CGGTAACG,-0.234
12,CAGACGCA,0.036
13,CATCGATC,-0.0186
14,CGTAAGGA,-0.00651
15,AGTTCCAG,0.0573
16,GTGACGTA,-0.0298
17,AGAGTTCG,0.0328
18,CCTCTCCC,-0.25
19,ATCGATGA,0.0647
20,AGTGCCGC,-0.149
21,CCAGTCGC,-0.136
22,ACCTACGA,0.0606
23,CACTGATA,0.0203
24,CCTCAGAA,-0.228
25,CAGGCCTA,-0.0342

row,Sequence,PBM E-score
1,CCGCGGCA,-0.00902
2,AGCTTGAG,-0.0261
3,CAACCATG,-0.0388
4,GTGGCTCA,-0.102
5,ATCTCCAG,0.017
6,CGTATGAG,0.00857
7,ATCTGTGA,0.141
8,AAAGCACC,-0.0391
9,AAAATCTG,0.235
10,TAGTAGCA,0.11
11,CGCTTCCC,-0.296
12,GATGGGCA,-0.0503
13,TAATGCTA,0.252
14,ACAGTCCA,-0.00715
15,CAAGTCAA,0.11
16,ACAAGAGG,-0.154
17,GGTTCCTA,-0.116
18,AAGGAAAG,-0.147
19,CCCTTATA,0.0469
20,AACGGGGC,-0.143
21,CTCAAGTC,-0.0954
22,AAACGCCA,0.0711
23,ATAGGACC,-0.212
24,AATATGGT,0.16
25,AACGTCAA,0.138

row,Sequence,PBM E-score
1,CTTGTGAA,0.136
2,AAGGTGCA,-0.00764
3,CGTAGTCC,-0.231
4,TTATTAAA,0.283
5,CTCATGCA,0.00544
6,GGCATGCC,-0.0568
7,GATTGATA,0.238
8,AGATTCGA,-0.0441
9,AAAGACCT,-0.101
10,AGTAGCCA,-0.184
11,ATTTTCTC,0.201
12,CTGATAGA,0.0969
13,CATGCTGC,-0.154
14,ATAAGATG,0.173
15,CATATGTC,-0.0743
16,ATACCACC,0.114
17,CATGCTAG,-0.0277
18,GGTTCTAC,-0.0153
19,GTCGACTA,0.171
20,CTTGCTCC,-0.133
21,CTCTATCC,-0.0705
22,GCTCAAAA,0.146

# Source: the supplement of paper PMC3334620
